Measurements as given in publication PMC12136788.
The other results are listed elsewhere or left out.

T1: UNK ZnF1-3 (human, UniProt Q9C0B0 31-174)
T1 sequence: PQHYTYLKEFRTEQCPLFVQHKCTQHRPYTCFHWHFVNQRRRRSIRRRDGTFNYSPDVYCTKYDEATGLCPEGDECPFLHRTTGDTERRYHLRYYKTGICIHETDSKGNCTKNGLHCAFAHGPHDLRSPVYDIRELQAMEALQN

B1: chr1:45981456:45981457:-_ENSG00000117450_ENST00000319248|hu_mus|FALSE|FALSE (ssRNA)
RNA: GGGAGUUCUACAGUCCGACGAUCUCUAUCACUGAAAGCAAUGAUCUCCGUGGGACACACAAAAGUAAAGUCAAGAGGGUAAAAGAAGAACACAACAUAUUUUCCUUUGUAUUCACUUAGGCUGAUAUCUUUGAAUUGUCCAUCCAACAGAGGAUUGAGCAUCA
B2: chr7:36427155:36427156:-_ENSMUSG00000030417_ENSMUST00000118501|mus_mus|motif|central (ssRNA)
RNA: GGGAGUUCUACAGUCCGACGAUCCAAAGUAAACAUUUACAAGGUGGUGACUGUCCUAGACACUGCUCCGGAAGUCUGUCGGAGUGCGUCCUCUUAGUAAUCGGCGUCGUCUUCAUCGGAGUCCAUUACUUUUCUUCUGUUGAACAACAGAGGAUUGAGCAUCA
B3: 94154221_94154341_1649_3pUTR_ENSMUSG00000020863_ENSMUST00000107820|mouse|control|control (ssRNA)
RNA: GGGAGUUCUACAGUCCGACGAUCCUGAGACAAAACAAUGUACCUCAAAAUGUUUUGCAGGACUACACUGUCUUUUCCUUCAGAAGAGGCUUUUGUAUGUCUUCUUACUCGGCUUAGCUCCAUCUUCAUCUGUGCAUACUUACGCAACAGAGGAUUGAGCAUCA
B4: chr13:100200628:100200629:-_ENSMUSG00000052727_ENSMUST00000064762|perfect_dup|motif|central (ssRNA)
RNA: GGGAGUUCUACAGUCCGACGAUCGUCUCCGGGUGUCUUCCCUCCGCUGUCUUUCUCCACACUAGAUGUAGUCAAAUCUCGGUUCAAGGCCAGAUGAUGUUGCAUUGUAUCAAAUAGCAUUGAGGAGCGGAAGCCAUAGGGCUCCAACAGAGGAUUGAGCAUCA
B5: chr2:91389038:91389039:+_ENSMUSG00000040549_ENSMUST00000099716|mus_mus|motif|central (ssRNA)
RNA: GGGAGUUCUACAGUCCGACGAUCUAGUCCUUUCAAUUGAACCACUGCAUUGGAAUCAGUGACAAAUUUUUUGAUUAAUCCGGAGUAUUUGGACCAUUCUGGACUCUUUUCAUCCUUUAUUUUCUGGAAGAUCUUCAAGGCUUCCAACAGAGGAUUGAGCAUCA
B6: chr17:60770872:60770873:+_ENSG00000011028_ENST00000303375|hu_hu|hu_hu_hu_mus_True|1_28 (ssRNA)
RNA: GGGAGUUCUACAGUCCGACGAUCUCUUUAAAAAAAAAAAAAAAAAGACAAACAAUAAUAGCACAUUUCGAGAAUCAAGAACUACAAUAGAGGGUCCGCUUUGAGUUGUCCAUGUUCUCGUCCUGCACUGGGACACGACCAGGACAACAGAGGAUUGAGCAUCA
B7: chr6:84311021:84311022:-_ENSG00000065609_ENST00000520302|hu_hu|FALSE|FALSE (ssRNA)
RNA: GGGAGUUCUACAGUCCGACGAUCCCCAGGAGAAGCUGCAAAGGCAUCUCCAAAGAGAUCCACUUCAGCAGUGACAGCAGUAACAGUUGUAGUAGUGGAGGCAGAAGCUGAGGCAGUUGCAAUUUCAGCAGUUGUAGUAGGAGGCAACAGAGGAUUGAGCAUCA
B8: chr12:105536279:105536280:+_ENSG00000136051_ENST00000332180|hu_mus|hu_hu_hu_mus_True|8_18 (ssRNA)
RNA: GGGAGUUCUACAGUCCGACGAUCAGCACUGAACAUGUAAUGUAAUCUGGCUGCAUCGACAGCAUUUUCAUAUACAUCAUCUAAAUAAAUCGGGAAGACAGCGCGAUGCCAGUAUAAAAAACAACAGUCACAUUGUGCUUGGACCAACAGAGGAUUGAGCAUCA
B9: chr11:77336104:77336105:-_ENSG00000074201_ENST00000525064|hu_hu|motif|central (ssRNA)
RNA: GGGAGUUCUACAGUCCGACGAUCUUCGCACAUUGCAGUGAACAUUGCCUCCAACGCUGAUUUAUCACUAGGCACAAAUCGGAAUUCAGUAAUAGGUUCAACAUCAUCAUCACUGUCUUCCUCUUCUUCAUCAGCAACAGGUUCCAACAGAGGAUUGAGCAUCA
B10: 126075893_126079953_1568_CDS_ENSG00000164961_ENST00000318410|human|control|control (ssRNA)
RNA: GGGAGUUCUACAGUCCGACGAUCCUCUUUGAGUAUAAACUCAAAUUGUGCAGUAUCUAACAGCAGCUGGAAGAGGAUCCUGGGAUUGUACCGAGAGUCUGUUAGAAUCUGGUCCUUGAUUUGACGAAGGCGUUUGUUGUUUGGCAACAGAGGAUUGAGCAUCA
B11: chr1:6260860:6260861:+_ENSMUSG00000025907_ENSMUST00000027040|perfect_dup|motif|central (ssRNA)
RNA: GGGAGUUCUACAGUCCGACGAUCUGGUUUGAGAUCCAGGGCAGGUAGAGACUCUGAAUGUAGAAAAUAUAAAGUAGGACGGACAGUAAAUAACACAUAAUUGUCAUGGCGUUCGUCUAGGAUGAUGAGUACCAAAUCUCCCACCAACAGAGGAUUGAGCAUCA
B12: chr2:48026839:48026840:+_ENSG00000116062_ENST00000540021|hu_hu|hu_hu_hu_mus_False|1_1 (ssRNA)
RNA: GGGAGUUCUACAGUCCGACGAUCAUAGUGAGCCACUAGCGUCCUAAAUCUGGAACAGUGGCGGUCAUCCGAAAACUGGCCGAUGAAAAACUUGCCCAGUGAAGUGUCCACAAAGCAAACACCAUACACACGAGUGUGGCCAGACAACAGAGGAUUGAGCAUCA
B13: chr2:42509997:42509998:+_ENSG00000143924_ENST00000318522|hu_mus|hu_hu_hu_mus_True|28_58 (ssRNA)
RNA: GGGAGUUCUACAGUCCGACGAUCUCGCUGAGUCCUCUCCUCAUAAUUAAACAGGACUACCACUGAGGCGAUAAAAUAAACUAUUUUCCCUGUGGGAAGCAGGUAUACAUUAGCUCUACAGUCCUUUCCUCGAUAACCGUAUACCAACAGAGGAUUGAGCAUCA
B14: chr3:9412954:9412955:+_ENSG00000134077_ENST00000452837|hu_mus|hu_hu_hu_mus_False|1_108 (ssRNA)
RNA: GGGAGUUCUACAGUCCGACGAUCGGUUGAUACAUCCUCUUUGAUGGCUGGAUUUUCAUAAUAGUCCAAGAUAUGUGAAUCUGAAGUGCUGCUGGCAUGCUUUUUCUUACCAUCUUUCUCAUCUGCUUUGUCUCCUUGUCCAUUCAACAGAGGAUUGAGCAUCA

target: T1, UNK ZnF1-3; experiment: nsRBNS (natural sequence RNA bind-n-seq); RBNS binding buffer (assumed for nsRBNS): 25 mM Tris pH 7.5, 150 mM KCl, 3 mM MgCl2, 0.01% Triton X-100, 500 ug/ml BSA, 20 U/ml SUPERase-In, 4 C; UNK is unkempt and MSI1 is Musashi-1; names of the RNAs are library labels; protein concentration not given here; high values mean tight binding

| Binder | binding signal |
| --- | --- |
| B1 | 1.21 enrichment R |
| B2 | 0.575 enrichment R |
| B3 | 0.677 enrichment R |
| B4 | 1.1 enrichment R |
| B5 | 0.953 enrichment R |
| B6 | 2.29 enrichment R |
| B7 | 1.47 enrichment R |
| B8 | 2.55 enrichment R |
| B9 | 0.758 enrichment R |
| B10 | 1.05 enrichment R |
| B11 | 2.34 enrichment R |
| B12 | 1.01 enrichment R |
| B13 | 1.59 enrichment R |
| B14 | 0.531 enrichment R |
